Laboratory results taken from PubChem BioAssay AID686979 (National Center for Advancing Translational Sciences (NCATS), 2013).
Hit rate of the full screen: of about 420,000 compounds, about 50,000 (12%) were called active. The shares of active, inactive and inconclusive entries below differ from those in the screen. Calls come from the whole dose curve; as a rule, active = well fitted inhibition curve with a large enough effect; inconclusive = small, poorly fitted or top-dose-only effect; inactive = flat fitted curve, though single readings scatter. Potencies of inconclusive entries are left out as doubtful fits.

Test: qHTS for Inhibitors of human tyrosyl-DNA phosphodiesterase 1 (TDP1): qHTS in cells in presence of CPT; note: nearly all actives have a fitted effect of over 55% in size
Conditions: chicken DT40 Tdp1-/-;hTDP1 cells + 20 nM CPT, ATP luminescence, 48 h; activity change, negative = growth inhibition: at 46.2 µM (top of the series) unless noted
Outline: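 Chicken DT40 Tdp1-/- cells stably complemented with human TDP1 were seeded at 400 cells/well in medium containing 20 nM camptothecin, exposed to pin-transferred compounds, and grown at 37 °C for at least 48 hr. Viability was read as ATP luminescence.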
% is set by controls: 0 for no effect and ±100 for the full control effect; potency is the fitted concentration of half-maximal effect; tags give direction and shape of the fitted curve.

SMILES | Potency | activity change, negative = growth inhibition
CCc1nnc(SCC(=O)N(C)c2ccccc2)c2cc3sccc3n12 | inconclusive [inhibitor, single point] | –
CCCCCCSc1cccc(-c2nc3ccc(C)cn3c2NCc2ccccc2)c1 | active: 23.1 µM | –
CC(C)C(=O)N1CCN(c2ccc([N+](=O)[O-])cc2Cl)CC1 | inconclusive [inhibitor, single point] | –
CC1(C)CC(=O)C(C=NCCN2CCN(C3CC(=O)N(c4ccc(Br)cc4)C3=O)CC2)=C(O)C1 (stereo unspecified) | inconclusive [inhibitor, single point] | –
CC1CCCN(C(C(=O)Nc2ccc3c(c2)OCO3)c2ccccc2)C1 (stereo unspecified) | active: 14.6 µM | –
COc1ccccc1C(c1nnnn1C(C)(C)C)N1CCCCCC1 (stereo unspecified) | active: 20.6 µM | –
CCOC(=O)C1(Cc2cccc(F)c2)CCN(Cc2nc(CC)[nH]c2C)CC1 | inconclusive [inhibitor, single point] | –
O=C(NCCc1nnc2ccc(NCCCN3CCOCC3)nn12)c1ccccc1F | inactive | –
CCOC(=O)c1cccc(NC(=O)CCc2c(C)nc3cc(-c4ccc(Cl)cc4)nn3c2C)c1 | active: 20.6 µM | –
CN(C)CCN(C(=O)c1cccc2ccccc12)c1nc2cc3c(cc2s1)OCO3 | inconclusive [inhibitor, single point] | –
CCCN(CCC)CCCNc1ccc(C(=O)Nc2cccc(OC)c2)cc1[N+](=O)[O-] | inconclusive [inhibitor, single point] | –
CCn1c(C)nc2cc(C(=O)OCCC(F)(F)F)ccc21 | inconclusive [inhibitor, single point] | –
OC(c1ccc(F)c(F)c1)c1nc(-c2cccs2)cs1 (stereo unspecified) | inconclusive [inhibitor, single point] | –
CCCc1c(C(=O)N/N=C(\C)c2cccnc2)nnn1-c1nonc1N | inactive | –
Cc1cccc(-n2c(SCC(=O)c3c(N)n(C4CC4)c(=O)[nH]c3=O)nnc2N2CCOCC2)c1 | inactive | –
O=C(COC(=O)CCC(=O)c1ccc(Cl)cc1)NC1CC1 | inactive | –
O=CNc1cc(-c2ccsc2)cn2c(-c3ccccc3)cnc12 | active: 16.4 µM | –
CCCn1c(=O)n(-c2cc(Cl)c(OC)cc2OC)c(=O)c2c3c(sc21)CN(C(C)=O)CC3 | inconclusive [inhibitor, single point] | –
CCOc1ccc(C(CCc2ccccc2)NC(=O)c2ccc(OC)c(OC)c2)cc1OCC (stereo unspecified) | – | inconclusive: -37.2% [inhibitor]
CS(=O)(=O)c1ccc(C(=O)Nc2cccc(-c3nc4ccccc4[nH]3)c2)cc1 | inconclusive [inhibitor, single point] | –
C[C@@H](NC(=O)c1nc[nH]c1C(=O)N[C@H](C)c1ccccc1)c1ccccc1 | inconclusive [inhibitor, single point] | –
O=C(O)CCCN1C(=O)C2C3CCC(C3)C2C1=O (stereo unspecified) | inconclusive [inhibitor, single point] | –
CCOC(=O)Cc1cc(=O)[nH]c(Nc2nc3ccccc3o2)n1 | inconclusive [inhibitor, single point] | –
CCN(CC)C(=O)c1cccc(-c2csc(C(C)(O)c3ccc(F)c(F)c3)n2)c1 (stereo unspecified) | inconclusive [inhibitor, single point] | –

SMILES | Potency | activity change, negative = growth inhibition
CC1CCOC2(O1)C(=O)Nc1ccccc12 (stereo unspecified) | inactive | –
CC(C)Oc1cccc(C(=O)N/N=C/c2coc3ccccc3c2=O)c1 | inactive | –
Cc1ccc(SC[C@H](Cc2ccccc2)N2CCN(CC(C)C)CCC2=O)cc1 | inconclusive [inhibitor, single point] | –
CCn1cc(CCC(=O)NCc2ccc(F)cc2)c2ccccc21 | active: 16.4 µM | –
Cc1ccc([C@H]2Nc3ccc(S(=O)(=O)Nc4cccc(Cl)c4C)cc3[C@H]3C=CC[C@H]32)cc1 | inconclusive [inhibitor, partial curve] | –
C/C(=N\NC(N)=S)c1ccc(-n2ccnc2)cc1 | inactive | –
CCOc1cccc(C(=O)Nc2ccccc2OC(F)F)c1 | – | inconclusive: -31.2% [inhibitor]
COc1ccc(C2(CNC(=O)Cc3ccc(OC)c(OC)c3)CCOCC2)cc1 | inactive | –
Cn1c(C(=O)NCCCN2CCN(c3ccccc3F)CC2)cc2c(=O)n(C)c3ccccc3c21 | inconclusive [inhibitor, single point] | –
CCOc1ccc(N2C(=O)/C(=C\c3ccc(OC)c(O)c3)S(=O)(=O)C2c2cccc([N+](=O)[O-])c2)cc1 (stereo unspecified) | inactive | –
Cc1ccc(C)c(NC(=O)c2ccccn2)c1 | inconclusive [inhibitor, partial curve, poor fit] | –
CNC[C@@H](CC1CCCCC1)NC[C@H](CC(C)C)NCCc1cccc(C(F)(F)F)c1 | active: 5.17 µM | –
CCOc1ccc2nc(N3CCC(C(=O)N4CCN(c5ccccn5)CC4)CC3)sc2c1 | active: 5.8 µM | –
Cc1nn(Cc2ccc(Cl)cc2)c2sc(C(=O)OCC(N)=O)cc12 | inconclusive [inhibitor, single point] | –
O=C(c1cc(C2CC2)on1)N1CCCC(N2CCN(c3cccc(C(F)(F)F)c3)CC2)C1 (stereo unspecified) | inconclusive [inhibitor, single point] | –
CC(C)=CC1C(C(=O)NCCOc2ccccc2)C1(C)C (stereo unspecified) | inconclusive [inhibitor, single point] | –
Cn1cccc1Cc1nnc(SCC(=O)Nc2ccc(F)cc2F)n1-c1ccc(F)cc1 | inconclusive [inhibitor, single point] | –
FC(F)(F)c1ccc(C2[C@H]3CN(Cc4cccnc4)[C@H](c4ccccc4)C34CC2(c2cccnc2)C4)cc1 (stereo partly specified) | active: 23.1 µM | –
COc1ccccc1C(=O)NCCC(=O)Nc1ccc(S(=O)(=O)N2C(C)CCCC2C)cc1 (stereo unspecified) | inconclusive [inhibitor, single point] | –
CSc1ccc(S(=O)(=O)NC2CC2)cc1 | inactive | –
Cn1c(=S)n(C)c2ccccc21 | inactive | –
O=C(N=C1SC2CS(=O)(=O)CC2N1c1cc(Cl)ccc1Cl)C1CC1 (stereo unspecified) | inconclusive [inhibitor, single point] | –
O=C(c1cc(COc2ccc3ncccc3c2)on1)N1CCC(O)CC1 | active: 16.4 µM | –
COc1ccc(OC)c(NC(=O)Cn2cnc3sc(C)c(S(=O)(=O)N4CCN(c5ccccc5OC)CC4)c3c2=O)c1 | active: 20.6 µM | –

SMILES | Potency | activity change, negative = growth inhibition
CCCN(C(=O)c1nn(-c2ccc(OC)c(Cl)c2)c(=O)c2c1c1ccccc1n2C)c1ccccc1F | inactive | –
COc1ccc(NC(=O)c2ccc3c(=O)n4nc(Nc5cc(C)ccc5C)sc4nc3c2)cc1 | active: 6.51 µM | –
O=C1CN(C(=O)c2ccc(Br)o2)C(c2ccc(F)cc2)c2cc(F)ccc2N1 (stereo unspecified) | – | inconclusive: -31.1% [inhibitor]
Cc1noc(C)c1COC(=O)c1ccc(F)c(S(=O)(=O)N2CCCCC2)c1 | inconclusive [inhibitor, single point] | –
COc1ccc(-c2onc3ccc(Cl)cc23)cc1 | inconclusive [inhibitor, single point] | –
O=C(O)c1cnn(-c2ccccc2)c1C(F)(F)F | inactive | –
CC(C)c1ccccc1NC(=O)COC(=O)Cc1cccc(C(F)(F)F)c1 | inconclusive [inhibitor, single point] | –
CCCc1cc(=O)[nH]c(SCC(=O)N(CC)c2c(N)n(Cc3ccccc3)c(=O)[nH]c2=O)n1 | inactive | –
COc1cc(OC)c(NC(=O)[C@@H]2CCC(=O)N2C2OC(=O)c3c2ccc(OC)c3OC)cc1Cl (stereo partly specified) | inactive | –
COc1ccc(CCC(=O)NC(C)C2CCCO2)cc1 (stereo unspecified) | inactive | –
COc1ccc(NC(=O)c2ccccc2C)cc1 | inconclusive [inhibitor, partial curve] | –
CNC(=O)c1ccsc1NC(=O)c1ccc(S(=O)(=O)N2CCc3ccccc32)cc1 | inconclusive [inhibitor, single point] | –
COc1ccc(S(=O)(=O)CC(=O)c2cc3cc(Br)ccc3oc2=O)cc1 | inconclusive [inhibitor, single point] | –
COc1ccc(CCn2c(=N)c(C(=O)NC3CCCC3)cc3c(=O)n4ccccc4nc32)cc1OC | active: 0.731 µM | –
COCCCNC(=O)C[C@H]1C[C@H](C(=O)N2CCOCC2)[C@@]2(C)c3[nH]c4cc(-c5ccco5)ccc4c3CCN2C1=O | inconclusive [inhibitor, single point] | –
COc1cccc(C(C(=O)NCc2ccco2)N(C(=O)Cn2nnc3ccccc32)C2CC2)c1OC (stereo unspecified) | active: 18.4 µM | –
CCOc1ccc(C(=O)Nc2ccc(N3CCCC3)cc2)cc1 | inactive | –
O=C1CC2(CCCC2)Oc2ccc(F)cc21 | inactive | –
CCOc1ccc(C(=O)NCCc2csc(-c3ccc(C(F)(F)F)cc3)n2)cc1OCC | inconclusive [inhibitor, partial curve] | –
Cn1c(C(=O)N2CCN(c3ccccn3)CC2)cc2ccccc21 | inconclusive [inhibitor, single point] | –
CCN(CCCNC(=O)CCCn1c(=O)[nH]c2ccccc2c1=O)c1cccc(C)c1 | inconclusive [inhibitor, partial curve, poor fit] | –
Cc1cccc2sc(NC(=O)CSCc3ccccc3)nc12 | inconclusive [inhibitor, single point] | –
COc1ccc(S(=O)(=O)c2c(Nc3ccc(F)cc3)sc(C(=O)c3ccc(C)cc3C)c2N)cc1 | inconclusive [inhibitor, single point] | –
